PubChem BioAssay AID624417 (National Center for Advancing Translational Sciences (NCATS), 2012)
Among all 410,000 compounds or so, about 6,400 (1.6%) were called active. This list was built around the results that the source calls inconclusive (neither active nor inactive); the mix of calls is not that of the screen. Calls follow the shape of the dose curve; as a rule, active = well fitted inhibition curve with a large enough effect; inconclusive = small, poorly fitted or top-dose-only effect; inactive = no such curve, though single readings can be large or run the other way. Where the call is inconclusive, the potency comes from a doubtful curve fit.

target: Glucagon-like peptide 1 receptor (Homo sapiens) (UniProt P43220); experiment: qHTS of GLP-1 Receptor Inverse Agonists (Inhibition Mode); conditions: HEK293 GLP-1R CRE-luciferase, luminescence, 24 h, GLP-1R form is constitutively active; activity change, negative = inhibition: at 38.3 µM (top of the series) unless noted; also: nearly all actives have a fitted effect of over 55% in size
Procedure, shortened: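 qHTS in 1536-well format: reporter HEK293 cells expressing constitutive GLP-1R activity in DMEM + 10% Nu serum, 24 hr with compounds at 37 deg C, luminescence read after 12 min with detection reagent.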
% is scaled to controls: 0 for no effect and ±100 for the full control effect; potency is read from the fitted curve at half-maximal effect; tags tell the direction and shape of the fitted curve.

Chain of UniProt P43220 (P43220 whole entry, looked up): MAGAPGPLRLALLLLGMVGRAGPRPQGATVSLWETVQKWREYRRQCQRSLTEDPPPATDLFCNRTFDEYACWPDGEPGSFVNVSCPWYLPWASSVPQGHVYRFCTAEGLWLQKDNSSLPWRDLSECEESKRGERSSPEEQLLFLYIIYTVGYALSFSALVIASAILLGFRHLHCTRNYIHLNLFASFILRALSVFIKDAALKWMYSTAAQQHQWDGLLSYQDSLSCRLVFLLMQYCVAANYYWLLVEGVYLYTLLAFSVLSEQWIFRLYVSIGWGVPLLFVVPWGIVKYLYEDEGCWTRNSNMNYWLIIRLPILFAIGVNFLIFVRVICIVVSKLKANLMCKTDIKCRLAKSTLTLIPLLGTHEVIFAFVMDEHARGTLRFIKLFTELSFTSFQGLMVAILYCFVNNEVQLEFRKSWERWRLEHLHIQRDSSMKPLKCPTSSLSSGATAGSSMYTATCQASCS

Activity change, negative = inhibition, inactive:
CCCCCC[N+](C)(C)CCSSCC[N+](C)(C)CCCCCC 9.27%
COC(=O)CNC(=O)CNC(=O)Nc1ccccc1Cl 0%
O=C(/C=C/c1ccccc1)N1CCN(Cc2cc(=O)n3nc(-c4ccccc4)sc3n2)CC1 6.58%
O=C(O)CNC(=S)N(Cc1ccco1)Cc1ccccc1Cl 9.71%
N#CC1(NC(=O)COC(=O)c2nccnc2N)CCCCC1 12.4%
Cc1nc(-c2coc3cc(OCC(=O)O)ccc3c2=O)cs1 0%
O=S(=O)(Nc1cccc(-c2ccc(N3CCOCC3)nn2)c1)c1ccc(F)cc1F 5.18%
CCCc1nn2c(C)c(-c3ccccc3)nc2s1 0.0678%

Potency, inconclusive:
CC1CCCN(C(C(=O)NC2CCCCC2)c2cc3c(cc2[N+](=O)[O-])OCO3)C1 (centres undefined) 28.2 µM [inhibitor, single point]
O=C1c2cccc(OCC(=O)N3N=C(c4cccs4)CC3c3ccc(F)cc3)c2CCN1Cc1ccccc1 (centres undefined) 7.08 µM [inhibitor, partial curve, poor fit]
CCCCOCCCNC(=O)C1c2ccccc2Oc2ccccc21 2.82 µM [inhibitor, partial curve]
Cc1cccc(N2CCN(C(=O)C3CCN(S(=O)(=O)c4ccc5c(c4)oc(=O)n5C)CC3)CC2)c1C 28.2 µM [inhibitor, single point]
CNc1nc2cc([N+](=O)[O-])c([N+](=O)[O-])cc2nc1NC 3.55 µM [inhibitor, partial curve]
COc1ccc(N(CC(=O)Nc2ccc(F)cc2)S(=O)(=O)c2ccccc2[N+](=O)[O-])c(OC)c1 28.2 µM [inhibitor, single point]
CCC(=O)NC(=S)Nc1cccc(Cl)c1N1CCCCC1 6.31 µM [inhibitor, partial curve, poor fit]
CCC(C)[C@@H](NC(=O)OC(C)(C)C)c1nnc(S(=O)(=O)Cc2cccc(C)c2)o1 (some centres undefined) 28.2 µM [inhibitor, single point]
O=C(NC(Cc1c[nH]c2ccccc12)C(=O)OCC(=O)c1cccc2ccccc12)c1cccs1 (centres undefined) 28.2 µM [inhibitor, single point]
CC(C)(C)Cc1c(-c2ccc(F)cc2)nc2ccc(Br)cn12 10 µM [inhibitor, partial curve, poor fit]
CN(C)c1ccc(C(C(=O)NCc2ccccc2)N(Cc2ccco2)C(=O)c2snc(C(N)=O)c2N)cc1 (centres undefined) 10 µM [inhibitor, partial curve, poor fit]
